# Laboratory results as given in the antibiotic and cytotoxicity screens of Wong et al. (2023).
# Some of the results follow.
# Assays:
# [1] = tested on: HSkMC (human skeletal muscle cells); test: cytotoxicity call (relative viability < 0.9); settings: 10 µM
# [2] = tested on: S. aureus RN4220; test: growth inhibition call (relative growth <= 0.2); settings: 50 µM
SMILES,cytotoxicity call [1],growth inhibition call [2]
COCCNC(=O)C[C@@H]1C[C@@H]2c3cc(NS(C)(=O)=O)ccc3O[C@@H]2[C@@H](CO)O1,inactive,inactive
CCCC#Cc1ccc2c(c1)O[C@@H](CN(C)S(=O)(=O)c1cccc(OC)c1)[C@H](C)CN([C@@H](C)CO)S2(=O)=O,inactive,inactive
Cc1noc(C)c1NC(=O)N(C)C[C@H]1OCCCC[C@H](C)Oc2ccc(NC(=O)Nc3cccc4ccccc34)cc2C(=O)N([C@H](C)CO)C[C@@H]1C,inactive,inactive
C[C@H](CO)N1C[C@H](C)[C@H](CN(C)S(=O)(=O)c2ccc(F)cc2)Oc2c(NS(=O)(=O)c3ccccc3)cccc2C1=O,inactive,inactive
COC(=O)[C@H](Cc1ccccc1)N1C[C@](C)(OC(C)C)O[C@@H](CCn2cc(COc3ccccc3/C=C(C)/C=C/C(=O)NO)nn2)[C@@H]1/C=C/C1CC1,inactive,inactive
CCS(=O)(=O)N1C[C@]2(CCN(CC2)S(=O)(=O)c2cn(cn2)C)c2c([nH]c3cc(ccc23)OC)[C@@H]1CO,inactive,inactive
Cc1cccc2c1OCC[C@@H](N)C2=O,inactive,inactive
C[C@@H]1CN([C@H](C)CO)S(=O)(=O)c2ccc(C#Cc3cccnc3)cc2O[C@@H]1CN(C)C(=O)CN(C)C,inactive,inactive
CCOC(=O)CSc1nc(=O)cn[nH]1,inactive,inactive
COc1ccc(NC(=O)Nc2ccc3c(c2)C(=O)N([C@H](C)CO)C[C@@H](C)[C@@H](CN(C)Cc2ccc(C(F)(F)F)cc2)OCCCC[C@H](C)O3)cc1,inactive,inactive
Cl.N=C(NN=Cc1ccc(Cl)cc1)NN=Cc1ccc(Cl)cc1,active,inactive
C[C@@H]1CN([C@@H](C)CO)C(=O)c2cc(NC(=O)CCCN(C)C)ccc2O[C@H]1CN(C)C(=O)Nc1ccc2c(c1)OCO2,inactive,inactive
C[C@@H]1CCCCO[C@H](CN(C)C(=O)Nc2ccc(C(F)(F)F)cc2)[C@@H](C)CN([C@@H](C)CO)C(=O)c2cc(NC(=O)Nc3ccc(C(F)(F)F)cc3)ccc2O1,inactive,inactive
C[C@H](CO)N1C[C@H](C)[C@H](CN(C)C(=O)Nc2cccc3ccccc23)Oc2c(NC(=O)c3nc4ccccc4s3)cccc2C1=O,inactive,inactive
Cc1noc(C)c1S(=O)(=O)Nc1ccc2c(c1)C(=O)N([C@H](C)CO)C[C@H](C)[C@@H](CN(C)C(=O)Nc1ccccc1)O2,inactive,inactive
C[C@@H]1CN([C@H](C)CO)C(=O)c2cc(NC(=O)C3CC3)ccc2O[C@@H]1CN(C)C(=O)Nc1ccc2c(c1)OCO2,inactive,inactive
COc1ccccc1-c1cccc(-c2nc(C(=O)N3CCCCC3)cc3c2[C@@H](CCO)N([S@](=O)C(C)(C)C)C3)c1,inactive,inactive
CCS(=O)(=O)NCC[C@@H]1CC[C@@H](NC(=O)C2CC2)[C@@H](CO)O1,inactive,inactive
C[C@@H]1CN([C@H](C)CO)C(=O)c2cccc(NC(=O)Nc3cccc4ccccc34)c2O[C@@H]1CN(C)S(=O)(=O)c1ccc(Cl)cc1,active,inactive
C[C@@H]1CCCCO[C@@H](CN(C)C(=O)Nc2cccc3ccccc23)[C@@H](C)CN([C@@H](C)CO)C(=O)c2cc(NC(=O)NC3CCCCC3)ccc2O1,inactive,inactive
COc1ccc(S(=O)(=O)Nc2ccc3c(c2)C(=O)N([C@H](C)CO)C[C@@H](C)[C@@H](CN(C)S(=O)(=O)c2cn(C)cn2)O3)cc1,inactive,inactive
CN(C)C(=O)C[C@@H]1C=C[C@H](NC(=O)C2CCOCC2)[C@@H](CO)O1,inactive,inactive
COc1ccccc1S(=O)(=O)N(C)C[C@@H]1Oc2cc(C#CCC(C)C)ccc2S(=O)(=O)N([C@@H](C)CO)C[C@H]1C,inactive,inactive
Cc1cc(-c2cc[nH]n2)c(C)s1,inactive,inactive
COc1ccc(NC(=O)Nc2ccc3c(c2)[C@H]2C[C@H](CC(=O)N4CCN(C)CC4)O[C@H](CO)[C@H]2O3)cc1,inactive,inactive
CNC[C@H]1Oc2ccc(NC(=O)Cn3cnnn3)cc2CC(=O)N([C@@H](C)CO)C[C@@H]1C,inactive,inactive
COC(=O)c1[nH]c(C(=O)OC)c(O)c1O,inactive,inactive
C[C@@H]1CN([C@H](C)CO)C(=O)c2cc(NS(=O)(=O)c3ccc(F)cc3)ccc2O[C@@H](C)CCCCO[C@H]1CN(C)Cc1ccc(Cl)c(Cl)c1,inactive,inactive
